PubChem BioAssay AID651820 (National Center for Advancing Translational Sciences (NCATS), 2012)
About 12,000 (3.5%) of roughly 340,000 compounds were called active. The shares of active, inactive and inconclusive entries below differ from those in the screen. The call rests on the fitted dose curve; in most records, active means well fitted inhibition curve with a large enough effect; inconclusive means small, poorly fitted or top-dose-only effect, or another doubt; inactive means no such curve, though single readings can be large or run the other way. Potencies of inconclusive entries are left out as doubtful fits.

Assay: qHTS Assay for Inhibitors of Hepatitis C Virus (HCV)
Conditions: Huh7.5.1 HCVcc-Cre (HCVcc is cell-culture hepatitis C virus) infection, luciferase reporter, 44 h; series mostly up to 41.8 µM
In short: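 Luciferase read-out (15 sec integration) after a 15 min room-temperature substrate step quantifies HCVcc-Cre infection. Cells, 1,000 per well, had compound added 4 h post-plating, then virus at ~0.5 moi, and were cultured 44 h.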
Potency means the concentration at half of the fitted maximal effect; tags describe the fitted curve by direction and shape.

| Compound | Potency |
| --- | --- |
| O=C(CCN1CC2CCC(CC2)C1)c1cccs1 | inconclusive [inhibitor, single point] |
| COc1cc(/C=C/C(=O)OCC(=O)Nc2cc(C(F)(F)F)ccc2N2CCOCC2)ccc1O | inconclusive [inhibitor, single point] |
| CCc1ccc(/C(C)=N/Nc2cc(Cl)nc(C)n2)cc1 | inconclusive [inhibitor, partial curve] |
| COc1ccccc1-c1oc2ccccc2c1-c1ccc2c(c1)OCO2 | inconclusive [inhibitor, single point] |
| OCC1(Cc2cccc(Cl)c2)CCCN(Cc2ccc3cc(F)ccc3n2)C1 (configuration not stated) | inconclusive [inhibitor, single point] |
| C1=C(c2c[nH]c3ccccc23)CCN(Cc2ccccc2)C1 | inconclusive [inhibitor, partial curve] |
| CCOC(=O)c1sc(SC)c2c1CCC/C2=N/OC | inconclusive [inhibitor, single point] |
| CCCn1cc(C(=O)OCC)c(=O)c2cc(F)c(F)cc21 | inactive |
| COc1ccc(/C=C/C(=O)NC(=S)NCCc2ccc(OC)c(OC)c2)cc1 | inconclusive [inhibitor, full curve] |
| O=C(CCC(=O)N1CCN(S(=O)(=O)c2ccc(Cl)cc2)CC1)NCc1cccc(C(F)(F)F)c1 | active: 11.2 µM |
| COc1ccc(C(=O)Nc2ccccc2[N+](=O)[O-])cc1S(=O)(=O)N1CCOCC1 | inconclusive [inhibitor, single point] |
| COc1ccc(C(=O)/C=C2/C(=O)Nc3ccccc32)c(OC)c1 | inconclusive [inhibitor, single point] |
| COc1ccccc1N1CCN(C(c2ccccn2)c2nnnn2C2CCCCC2)CC1 (configuration not stated) | inactive |
| CC(C)(C)OC(=O)N1CCC[C@H]1C(=O)N/N=C/c1cccc2nccnc12 | inactive |
| Cc1cccc(NC(=O)c2ccc(CN3CCN(Cc4ccccc4)CC3)cc2)c1 | inconclusive [inhibitor, single point] |
| CC(C)(C)NC(=O)C(c1ccco1)N(C(=O)Cn1nnc(-c2ccc(F)cc2)n1)c1cccc(F)c1 (configuration not stated) | inconclusive [inhibitor, single point] |
| CCc1ccc(-c2cc(C(F)(F)F)n3nc(C(=O)Nc4cnn(Cc5ccccc5C)c4)cc3n2)s1 | inconclusive [inhibitor, full curve, poor fit] |
| CCOC(=O)C1=C(C)N=c2sc(=C(C)C)c(=O)n2C1c1ccc(N(C)C)cc1 (configuration not stated) | inconclusive [inhibitor, partial curve] |
| COc1ccc(C)cc1S(=O)(=O)N(CC(=O)Nc1cccc([N+](=O)[O-])c1)c1ccc(C)cc1 | inconclusive [inhibitor, partial curve] |
| O=C(COC(=O)c1ccc(O)cc1)Nc1cc(C(F)(F)F)ccc1Cl | inconclusive [inhibitor, single point] |
| COCCN(C(=O)COC(=O)c1ccccc1NCc1ccco1)c1c(N)n(Cc2ccccc2)c(=O)[nH]c1=O | inconclusive [inhibitor, partial curve, poor fit] |
| COc1ccccc1Cn1c(=O)c2ccccc2n2c(Sc3ncnc4sccc34)nnc12 | active: 10 µM |
| N#Cc1ccc(OCC(=O)Nc2ccc(N3CCCC3)cc2)cc1 | inconclusive [inhibitor, partial curve] |

| Compound | Potency |
| --- | --- |
| Cc1ccc(C)c(NC(=S)NC(NC(=O)Cc2ccccc2)C(Cl)(Cl)Cl)c1 (configuration not stated) | inconclusive [inhibitor, full curve, poor fit] |
| COc1ccc(-c2nc(CSCC(=O)N3CCN(c4cccc(C)c4)C(C)C3)c(C)o2)cc1OC (configuration not stated) | active: 10 µM |
| O=C(Nc1c(C(=O)N2CCC(N3CCCCC3)CC2)oc2ccccc12)c1ccc(F)cc1 | active: 12.6 µM |
| O=C(Nc1c2c(nn1-c1ccccc1)CSC2)c1ccc(N2C(=O)CCC2=O)cc1 | inconclusive [inhibitor, full curve] |
| COc1cc2c(cc1NC(=O)COc1ccccc1OC)oc1ccccc12 | inconclusive [inhibitor, single point] |
| Cc1ccc(OCC(=O)NNC(=O)C2CCN(c3nc(C)cc(C)n3)CC2)cc1 | inconclusive [inhibitor, partial curve, poor fit] |
| COc1ccc(C(=O)OCc2cc(=O)n3c(C)csc3n2)cc1F | inconclusive [inhibitor, single point] |
| CCN1c2ccccc2-c2nc3ccccc3n2C1c1ccco1 (configuration not stated) | inactive |
| O=C(Nc1ccc(Br)cc1)c1ccc(F)c(S(=O)(=O)N2CCN(c3ccccn3)CC2)c1 | active: 7.08 µM |
| C/C(=N\NC(=S)NCc1ccccc1)c1ccccc1F | inconclusive [inhibitor, partial curve] |
| CC1CCCCN1C(=O)C(Cc1ccccc1)N1C(=O)C2CCCCC2C1=O (configuration not stated) | inactive |
| O=C(COc1ccc(S(=O)(=O)N2CCCC2)cc1Cl)N1CCN(c2ccccc2)CC1 | inconclusive [inhibitor, single point] |
| NC(=O)c1c(NC(=O)c2ccccc2F)sc2c1CCCC2 | inconclusive [inhibitor, single point] |
| CCN(CC)c1nc2nonc2nc1N(CC)CC | inactive |
| COC(=O)C1=C(c2ccc(F)cc2OCc2ccccc2)C[C@@H]2CC[C@H]1N2C(=O)N1CCCC1 | active: 11.2 µM |
| CCCOc1c(Br)cc(/C=N/O)cc1OC | inactive |
| COc1ccc(/C=C\C(=O)c2c(O)ccc3c(C)cc(=O)oc23)cc1OC | active: 10 µM |
| CCOc1cc(CNCCc2c[nH]c3ccccc23)cc(Cl)c1OCC(N)=O | inconclusive [inhibitor, single point] |
| CN1CCN(c2ccc(NC(=O)c3ccc4c(c3)[nH]c(=O)n4Cc3ccc(F)cc3)cc2)CC1 | inconclusive [inhibitor, partial curve, poor fit] |
| COc1cc(C(=O)Nc2ccc(-n3cnnn3)c(C)c2)cc(OC)c1OC | inconclusive [inhibitor, full curve, poor fit] |
| COc1ccc(-c2nn(-c3ccccc3)cc2/C=N/Nc2ccc(Cl)c(C(=O)O)c2)cc1OC | inactive |
| O=C(c1ccccc1)N1CCN(S(=O)(=O)N2CCCCCC2)CC1 | inconclusive [inhibitor, single point] |
| CCN(CC)CCCNc1cc2n(c(=O)n1)CCc1cc(OC)c(OC)cc1-2 | inconclusive [inhibitor, single point] |

| Compound | Potency |
| --- | --- |
| O=C(Nc1ccc(S(=O)(=O)Nc2ncccn2)cc1)c1cccnc1 | inactive |
| NC(=Nc1ccc(Br)cc1)c1ccccc1 | inactive |
| N=c1ccn(Cc2cccc(F)c2)cc1 | active: 3.16 µM |
| COc1ccccc1Nc1nc(C)nc2c1oc1ccccc12 | inconclusive [inhibitor, partial curve] |
| CC1CN(c2nc3ccccc3nc2SCC(=O)Nc2cccc(C(F)(F)F)c2)CC(C)O1 (configuration not stated) | inconclusive [inhibitor, partial curve] |
| O=c1cc2oc3cc(O)c(O)cc3c(-c3ccccc3[N+](=O)[O-])c-2cc1O | inconclusive [inhibitor, single point] |
| CCn1c(=NC(=O)c2ccc(N3C(=O)CCC3=O)cc2)sc2c(OC)ccc(OC)c21 | active: 14.1 µM |
| COc1cc(C(=O)Nc2ccc(N(C)C)cc2)cc(OC)c1OC | inconclusive [inhibitor, single point] |
| CC(=O)C12CCCCC1CC1C3CC(C)C4(O)CC(=O)CCC4(C)C3CCC12C (configuration not stated) | inactive |
| CCCC(=O)N(CCN1CCOCC1)c1nc2c(OC)ccc(OC)c2s1 | inactive |
| Cc1cc(N2CCOCC2)nc(SCc2ccc(Cl)cc2Cl)n1 | inconclusive [inhibitor, single point] |
| Cc1cccc(NC(=O)CCCCCN2C(=O)[C@@H]3Cc4ccccc4CN3C2=O)c1 | inconclusive [inhibitor, partial curve] |
| COc1ccccc1N(Cc1ccccc1)S(=O)(=O)c1cccc(C(=O)Nc2ccc(C(C)=O)cc2)c1 | inactive |
| COc1ccc(Nc2ccccc2N)cc1 | inconclusive [inhibitor, single point] |
| O=c1ccc2cc(O[C@@H]3O[C@H](CO)[C@@H](O)[C@H](O)[C@H]3O)c(O)cc2o1 | inconclusive [inhibitor, partial curve, poor fit] |
| COc1ccc(CNS(=O)(=O)c2ccc(NC(=O)N3CCCCC3)cc2)cc1 | active: 8.91 µM |
| Cc1ccc(C(=O)N/N=C\c2ccc3c(c2)OCO3)cn1 | inactive |
| CCCCN(C(=O)c1ccc(NC2CC2)c([N+](=O)[O-])c1)c1c(N)n(CCCC)c(=O)[nH]c1=O | inconclusive [inhibitor, single point] |
| CN1/C(=C\C(=O)COc2ccc3c(c2)OCO3)C(C)(C)c2ccccc21 | inconclusive [inhibitor, partial curve] |
| O=C(Nc1ccc(CN2CCOCC2)cc1)c1ccc(-c2cccc(Cl)c2)o1 | inconclusive [inhibitor, single point] |
| CCOc1ccc(-c2cc(CCCC(=O)NCc3cccnc3)no2)cc1 | inconclusive [inhibitor, single point] |
